In article PMC3445614:
No constants are given. Whether binding was seen depends on the method and setting. Binding seen in cells or lysates may run through a third protein. Some entries that bind do so weakly or less than the wild type.

By UniProt entry, the sequences of proteins in these tests, tags left out. Where a name states a change or a piece, a line headed by the entry shows the natural chain unless it says otherwise. Chains listed by the source or under a name are the forms on record and can include a tag or linker. Residues count along the entry.
UniProt P29590: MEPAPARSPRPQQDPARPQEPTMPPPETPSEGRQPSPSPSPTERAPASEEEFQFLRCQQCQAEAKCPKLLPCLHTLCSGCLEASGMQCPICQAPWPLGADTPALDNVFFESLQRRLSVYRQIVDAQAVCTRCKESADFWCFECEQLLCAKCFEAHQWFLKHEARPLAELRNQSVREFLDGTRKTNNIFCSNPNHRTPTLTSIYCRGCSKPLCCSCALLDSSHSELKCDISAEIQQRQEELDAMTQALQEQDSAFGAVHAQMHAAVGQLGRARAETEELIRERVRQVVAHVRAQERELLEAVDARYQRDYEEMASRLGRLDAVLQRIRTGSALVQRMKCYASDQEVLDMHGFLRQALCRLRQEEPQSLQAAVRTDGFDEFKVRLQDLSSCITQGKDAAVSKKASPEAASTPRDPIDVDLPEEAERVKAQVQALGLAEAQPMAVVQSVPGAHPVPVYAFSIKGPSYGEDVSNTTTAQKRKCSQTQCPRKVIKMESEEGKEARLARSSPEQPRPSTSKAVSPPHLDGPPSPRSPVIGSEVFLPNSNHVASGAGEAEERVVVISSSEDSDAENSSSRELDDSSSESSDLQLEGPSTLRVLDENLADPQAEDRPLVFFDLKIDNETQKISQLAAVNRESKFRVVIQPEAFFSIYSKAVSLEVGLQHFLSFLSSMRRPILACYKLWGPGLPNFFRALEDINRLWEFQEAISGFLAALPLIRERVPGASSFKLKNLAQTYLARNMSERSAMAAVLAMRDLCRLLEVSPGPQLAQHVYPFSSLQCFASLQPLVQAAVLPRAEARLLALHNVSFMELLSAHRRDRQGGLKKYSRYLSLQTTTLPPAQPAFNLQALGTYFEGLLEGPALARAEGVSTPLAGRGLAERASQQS
Luc-PMLIV (Renilla luciferase fused to the N-terminus of PML isoform IV) (P29590, form named): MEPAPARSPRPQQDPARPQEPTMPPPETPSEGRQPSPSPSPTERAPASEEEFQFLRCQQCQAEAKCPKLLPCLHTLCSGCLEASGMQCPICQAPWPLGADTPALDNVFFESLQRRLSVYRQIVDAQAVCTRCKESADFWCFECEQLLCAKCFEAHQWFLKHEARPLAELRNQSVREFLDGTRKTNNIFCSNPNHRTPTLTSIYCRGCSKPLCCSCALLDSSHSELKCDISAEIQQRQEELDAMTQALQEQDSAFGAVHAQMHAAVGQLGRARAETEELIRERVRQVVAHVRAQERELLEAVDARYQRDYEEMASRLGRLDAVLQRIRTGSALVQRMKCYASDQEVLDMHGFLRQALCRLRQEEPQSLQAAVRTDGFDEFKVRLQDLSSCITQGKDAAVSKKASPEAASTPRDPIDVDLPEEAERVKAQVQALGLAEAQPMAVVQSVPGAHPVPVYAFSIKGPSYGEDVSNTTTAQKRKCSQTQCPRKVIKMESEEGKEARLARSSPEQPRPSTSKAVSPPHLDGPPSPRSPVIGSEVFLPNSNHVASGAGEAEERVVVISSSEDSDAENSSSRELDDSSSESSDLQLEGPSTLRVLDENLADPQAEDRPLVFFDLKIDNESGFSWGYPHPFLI
Luc-PMLIII (Renilla luciferase fused to the N-terminus of PML isoform III) (P29590, form named): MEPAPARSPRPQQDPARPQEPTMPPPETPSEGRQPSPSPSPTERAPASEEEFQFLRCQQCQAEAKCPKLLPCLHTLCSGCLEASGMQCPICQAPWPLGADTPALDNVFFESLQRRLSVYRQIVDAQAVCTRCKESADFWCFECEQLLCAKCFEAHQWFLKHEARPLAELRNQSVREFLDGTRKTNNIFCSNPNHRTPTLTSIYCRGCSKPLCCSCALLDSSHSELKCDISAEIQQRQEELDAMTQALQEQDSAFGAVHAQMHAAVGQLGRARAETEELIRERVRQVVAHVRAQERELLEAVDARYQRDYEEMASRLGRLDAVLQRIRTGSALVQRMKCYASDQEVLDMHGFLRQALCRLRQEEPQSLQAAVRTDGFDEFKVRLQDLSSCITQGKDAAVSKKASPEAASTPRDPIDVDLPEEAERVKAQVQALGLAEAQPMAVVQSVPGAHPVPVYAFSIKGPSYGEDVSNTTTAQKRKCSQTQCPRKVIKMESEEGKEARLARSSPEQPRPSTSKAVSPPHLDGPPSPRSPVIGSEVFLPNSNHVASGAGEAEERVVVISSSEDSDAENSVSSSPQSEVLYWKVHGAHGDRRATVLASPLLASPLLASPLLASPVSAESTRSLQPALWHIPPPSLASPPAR
Luc-PMLII (Renilla luciferase fused to the N-terminus of PML isoform II) (P29590, form named): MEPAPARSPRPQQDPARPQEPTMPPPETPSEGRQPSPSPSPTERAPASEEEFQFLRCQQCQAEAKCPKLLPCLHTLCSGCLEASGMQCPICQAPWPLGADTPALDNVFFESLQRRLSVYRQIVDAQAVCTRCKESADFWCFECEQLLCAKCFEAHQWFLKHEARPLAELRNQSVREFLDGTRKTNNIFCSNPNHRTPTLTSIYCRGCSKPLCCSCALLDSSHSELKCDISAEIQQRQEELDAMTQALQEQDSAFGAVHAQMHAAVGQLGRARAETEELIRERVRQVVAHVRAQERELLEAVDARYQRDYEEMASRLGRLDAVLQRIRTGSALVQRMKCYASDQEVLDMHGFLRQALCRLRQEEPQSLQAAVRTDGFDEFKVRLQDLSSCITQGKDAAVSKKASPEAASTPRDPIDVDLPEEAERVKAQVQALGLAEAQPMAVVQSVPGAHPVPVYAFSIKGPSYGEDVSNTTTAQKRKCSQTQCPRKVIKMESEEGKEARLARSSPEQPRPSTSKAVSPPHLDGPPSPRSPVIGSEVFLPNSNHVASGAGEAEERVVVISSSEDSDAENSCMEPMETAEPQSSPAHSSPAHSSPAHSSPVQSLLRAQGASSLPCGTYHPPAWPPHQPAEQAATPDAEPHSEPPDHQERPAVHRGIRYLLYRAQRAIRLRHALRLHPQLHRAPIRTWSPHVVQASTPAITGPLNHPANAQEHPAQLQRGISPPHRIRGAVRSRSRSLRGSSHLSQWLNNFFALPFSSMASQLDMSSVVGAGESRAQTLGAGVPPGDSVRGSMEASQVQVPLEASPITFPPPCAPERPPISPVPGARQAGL
Luc-PMLV (Renilla luciferase fused to the N-terminus of PML isoform V) (P29590, form named): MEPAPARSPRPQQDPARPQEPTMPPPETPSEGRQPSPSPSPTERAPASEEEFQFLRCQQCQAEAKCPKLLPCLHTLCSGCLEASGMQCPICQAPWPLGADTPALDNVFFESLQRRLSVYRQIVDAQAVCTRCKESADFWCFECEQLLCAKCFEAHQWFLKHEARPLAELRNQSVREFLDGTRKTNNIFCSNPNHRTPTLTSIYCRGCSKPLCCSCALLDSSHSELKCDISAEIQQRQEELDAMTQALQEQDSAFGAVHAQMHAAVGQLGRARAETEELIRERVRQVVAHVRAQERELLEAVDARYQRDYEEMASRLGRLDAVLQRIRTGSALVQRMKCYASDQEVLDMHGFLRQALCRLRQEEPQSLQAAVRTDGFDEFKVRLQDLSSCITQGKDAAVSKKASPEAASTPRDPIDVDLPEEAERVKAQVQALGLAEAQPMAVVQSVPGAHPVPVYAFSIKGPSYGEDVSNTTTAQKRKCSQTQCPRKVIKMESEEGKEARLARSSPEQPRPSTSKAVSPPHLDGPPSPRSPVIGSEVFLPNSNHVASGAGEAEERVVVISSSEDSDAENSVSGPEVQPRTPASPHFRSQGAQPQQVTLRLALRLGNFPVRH
Luc-PMLVI (Renilla luciferase fused to the N-terminus of PML isoform VI) (P29590, form named): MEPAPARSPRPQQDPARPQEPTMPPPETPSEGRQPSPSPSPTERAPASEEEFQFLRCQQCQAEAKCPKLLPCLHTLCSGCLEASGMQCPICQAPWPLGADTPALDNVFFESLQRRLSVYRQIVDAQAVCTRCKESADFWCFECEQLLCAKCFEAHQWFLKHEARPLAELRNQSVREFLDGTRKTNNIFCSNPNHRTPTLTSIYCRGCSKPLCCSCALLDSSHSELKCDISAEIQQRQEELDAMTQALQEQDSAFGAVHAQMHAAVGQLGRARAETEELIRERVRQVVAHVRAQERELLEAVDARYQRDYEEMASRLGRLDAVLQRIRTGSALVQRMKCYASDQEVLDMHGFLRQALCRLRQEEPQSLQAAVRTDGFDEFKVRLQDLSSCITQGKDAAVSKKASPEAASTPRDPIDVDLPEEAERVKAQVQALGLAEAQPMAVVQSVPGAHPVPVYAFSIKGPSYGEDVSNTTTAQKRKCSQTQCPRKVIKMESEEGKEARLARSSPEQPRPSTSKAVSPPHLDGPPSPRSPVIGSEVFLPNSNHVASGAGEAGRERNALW
Luc-PMLVII (Renilla luciferase fused to the N-terminus of PML isoform VII) (P29590, form named): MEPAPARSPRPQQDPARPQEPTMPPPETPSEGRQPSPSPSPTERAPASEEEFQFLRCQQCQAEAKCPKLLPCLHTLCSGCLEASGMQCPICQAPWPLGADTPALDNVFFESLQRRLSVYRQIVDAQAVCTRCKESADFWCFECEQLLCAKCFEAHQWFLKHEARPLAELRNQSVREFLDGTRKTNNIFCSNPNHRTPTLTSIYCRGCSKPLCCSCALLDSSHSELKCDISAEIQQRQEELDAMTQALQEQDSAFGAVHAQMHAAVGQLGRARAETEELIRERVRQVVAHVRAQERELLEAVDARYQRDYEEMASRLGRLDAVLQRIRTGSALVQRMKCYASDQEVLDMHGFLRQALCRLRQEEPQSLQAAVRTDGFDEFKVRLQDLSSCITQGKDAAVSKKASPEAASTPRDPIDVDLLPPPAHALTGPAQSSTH
UniProt P55854, residues 1-92: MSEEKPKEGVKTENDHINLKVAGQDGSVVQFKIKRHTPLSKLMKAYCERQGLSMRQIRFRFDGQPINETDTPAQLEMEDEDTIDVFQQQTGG

What was measured:
Test in all cases: FRET or BRET; BRET titration in living HEK293T cells: fixed amount of the Luc fusion (donor), increasing amounts of the YFP fusion (acceptor); untreated or As2O3 (5 uM, 4 h); attached cells in PBS, coelenterazine H 5 uM; BRET ratio plotted against YFP/Luc expression
[1] = target: Luc-PMLIV (Renilla luciferase fused to the N-terminus of PML isoform IV) (UniProt P29590)
[2] = target: Luc-PMLIII (Renilla luciferase fused to the N-terminus of PML isoform III) (UniProt P29590)
[3] = target: Luc-PMLI (Renilla luciferase fused to the N-terminus of PML isoform I) (UniProt P29590)
[4] = target: Luc-PMLII (Renilla luciferase fused to the N-terminus of PML isoform II) (UniProt P29590)
[5] = target: Luc-PMLV (Renilla luciferase fused to the N-terminus of PML isoform V) (UniProt P29590)
[6] = target: Luc-PMLVI (Renilla luciferase fused to the N-terminus of PML isoform VI) (UniProt P29590)
[7] = target: Luc-PMLVII (Renilla luciferase fused to the N-terminus of PML isoform VII) (UniProt P29590)

With YFP-SUMO3 (from UniProt P55854 1-92) the binding [1] was “binds”, the binding [2] was “binds” and the binding [3] was “binds”. The binding [4] was “binds”, the binding [5] was “binds” and the binding [6] was “binds”. The binding [7] was “no binding”.
